Measurements as given in the supplement of paper PMC12217912.
Some of the results follow. The full chains were built here from the parent and the listed change. Inactive controls read about 0.05.

B1: TEV protease; numbered along this chain (parent)
chain: MGESLFKGPRDYNPISSSICHLTNESDGHTTSLYGIGFGPFIITNKHLFRRNNGTLVVQSLHGVFKVKDTTTLQQHLVDGRDMIIIRMPKDFPPFPQKLKFREPQREERICLVTTNFQTKSMSSMVSDTSCTFPSGDGIFWKHWIQTKDGQCGSPLVSTRDGFIVGIHSASNFTNTNNYFTSVPKNFMELLTNQEAQQWVSGWRLNADSVLWGGHKVFMVKPEEPFQPVKEATQL

Variants of: B1
Test: raw area under fraction-flipped curve 0-4 h after induction (AUC4h, not background-subtracted), DNA-recorder readout of cleavage of the substrate (dimensionless); higher = more cleavage of the substrate by the protease variant
Conditions: temperature: 34 °C; time window: 0-4 h after rhamnose induction
Protocol: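 In vivo DNA recorder in E. coli TOP10(DE3) ΔrhaA at 34 °C. Each TEVp single-site mutant (parent TEVp 0) is paired with a single-site variant of the 7-mer TEVs (canonical ENLYFQ|S). The substrate sits between flexible linkers in a Bxb1-sfGFP-TEVs-SsrA fusion, so cleavage stabilises Bxb1 and speeds flipping of a recombination array, read by NGS. The value is the raw area under the fraction-flipped curve over 0-4 h after rhamnose induction (AUC4h), with ≥20 reads per time point. It is not background-subtracted; inactive controls average about 0.047.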
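Also: Bxb1 expression induced with 0.2% (w/v) L-rhamnose at OD600 near 0.5, cultures sampled hourly, flipped fraction per protease–substrate barcode pair counted by paired-end Illumina sequencing.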

| Variant | area with substrate CNLYFQS | area with substrate DNLYFQS | area with substrate GNLYFQS | area with substrate HNLYFQS | area with substrate INLYFQS | area with substrate KNLYFQS | area with substrate MNLYFQS | area with substrate NNLYFQS | area with substrate PNLYFQS | area with substrate QNLYFQS | area with substrate SNLYFQS | area with substrate TNLYFQS | area with substrate VNLYFQS | area with substrate WNLYFQS | area with substrate YNLYFQS | area with substrate FNLYFQS | area with substrate LNLYFQS | area with substrate RNLYFQS |
| --- | --- | --- | --- | --- | --- | --- | --- | --- | --- | --- | --- | --- | --- | --- | --- | --- | --- | --- |
| Q198E | 0.0648 | 0.0647 | 0.085 | 0.0929 | 0.0631 | 0.0932 | 0.0691 | 0.0741 | 0.0726 | 0.0644 | 0.0699 | 0.0645 | 0.0592 | 0.0495 | 0.0506 |  |  |  |
| Q198R | 0.102 | 0.0815 | 0.0547 |  | 0.0656 | 0.057 | 0.0669 | 0.0806 | 0.0706 | 0.0691 | 0.0565 | 0.0594 |  | 0.0541 | 0.0579 | 0.083 |  |  |
| Q198W | 0.0401 | 0.0702 | 0.0581 | 0.0708 | 0.029 |  | 0.0662 | 0.0579 | 0.0768 | 0.0667 |  | 0.06 |  | 0.0591 | 0.0651 |  | 0.0503 | 0.0576 |
| W199C | 0.0649 | 0.0681 |  | 0.054 | 0.0587 |  |  |  | 0.0684 |  | 0.0704 | 0.0422 | 0.064 | 0.0561 |  |  | 0.0596 | 0.0616 |
| W199L | 0.0484 | 0.0658 |  | 0.0543 |  |  |  |  | 0.0608 |  | 0.0732 | 0.0517 |  |  |  |  | 0.0689 |  |
| W199R | 0.0555 | 0.057 | 0.0686 | 0.0466 | 0.0655 |  | 0.0574 |  | 0.0672 |  | 0.0536 | 0.0568 | 0.0469 | 0.0649 | 0.0579 |  | 0.0616 |  |
| S201A | 0.0701 | 0.0581 | 0.068 | 0.0719 | 0.0675 |  |  | 0.0633 | 0.0655 |  |  |  | 0.0775 | 0.0644 |  |  | 0.0587 |  |
| G202H | 0.0654 | 0.0569 | 0.06 | 0.0606 |  | 0.0641 |  | 0.0639 | 0.057 |  | 0.0845 | 0.0565 |  | 0.0588 | 0.0533 |  |  | 0.0659 |
| G202Y | 0.0773 | 0.0403 | 0.0723 |  |  |  |  |  | 0.0593 | 0.0698 | 0.0599 | 0.0534 | 0.0485 | 0.0568 | 0.0582 | 0.0202 |  | 0.0727 |
| R204C | 0.0724 | 0.11 | 0.0624 | 0.0783 | 0.065 |  | 0.0683 | 0.0769 | 0.0768 |  |  | 0.0755 | 0.0694 | 0.0598 | 0.0667 | 0.0692 | 0.0702 |  |
| N206S | 0.0558 | 0.0651 | 0.0818 | 0.0634 |  |  | 0.0627 |  | 0.0679 |  | 0.0763 | 0.067 |  |  | 0.0511 | 0.0654 | 0.0444 |  |
| A207N | 0.0833 | 0.0755 |  | 0.0579 | 0.0763 | 0.0564 |  | 0.0067 | 0.0651 |  | 0.0557 | 0.0606 | 0.054 | 0.0683 | 0.072 | 0.055 | 0.06 |  |
| A207P | 0.0544 | 0.0763 |  |  |  |  |  |  | 0.055 |  | 0.046 | 0.0549 |  | 0.0625 | 0.0881 |  |  |  |
| S209F | 0.0709 | 0.0861 | 0.0797 | 0.0801 | 0.0847 | 0.0784 | 0.0719 | 0.055 |  |  | 0.0753 | 0.0765 | 0.107 | 0.0669 | 0.0558 |  |  |  |
| V210C | 0.0629 | 0.0574 | 0.0495 | 0.0597 | 0.0628 | 0.0638 |  |  | 0.0565 | 0.0604 | 0.051 | 0.0598 | 0.0546 | 0.0664 | 0.0534 |  |  |  |
